# Reference: PubChem BioAssay AID686978 (National Center for Advancing Translational Sciences (NCATS), 2013)
# The campaign covered roughly 420,000 compounds. About 64,000 (15%) were called active. Inconclusive results, whose numbers are uncertain, are shown with a selection of clear calls. The call rests on the fitted dose curve; in most records, active means well fitted inhibition curve with a large enough effect; inconclusive means small, poorly fitted or top-dose-only effect; inactive means flat fitted curve, though single readings scatter. No potency is given beside an inconclusive call; the fits are too rough.
# Experiment: qHTS for Inhibitors of human tyrosyl-DNA phosphodiesterase 1 (TDP1): qHTS in cells in absence of CPT; further: nearly all actives have a fitted effect of over 55% in size
# Settings: DT40 Tdp1-/- hTDP1 cells, no CPT, ATP luminescence, 48 h; activity change, negative = growth inhibition: at 46.2 µM (top of the series) unless noted
# Method in brief: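 DT40 Tdp1-/-;hTDP1 cells, no CPT (DMSO vehicle only), 400 cells/well; compounds pin-transferred; ≥48 hr, 37 °C; CellTiter-Glo 30 min RT dark, luminescence read.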
# On the % scale 0 is the no-effect control and ±100 the full control effect; potency means the concentration at half of the fitted maximal effect; tags describe the fitted curve by direction and shape.
Compound,Potency,"activity change, negative = growth inhibition"
CCOC(=O)C1=CN(Cc2cccc(-c3cccnc3)c2)S(=O)(=O)N(C)C1C (centres undefined),active: 13 µM,–
Cn1cccc1C(=O)NC1CCCCC1,inactive,–
O=S1(=O)C[C@H](N2CCN(CC3CC3)CC2)[C@@H](COCc2ccccc2)N1,"inconclusive [inhibitor, single point]",–
Cc1ccc(OCCNC(=O)c2ccc(NC(=O)CC3SC(N4CCCC4)=NC3=O)cc2)cc1 (centres undefined),"inconclusive [inhibitor, single point]",–
CC(=O)Nc1ccc(CN(C)c2c(C)nc3ccc(C(=O)NCCc4ccccn4)cn23)cc1,inactive,–
O=S1(=O)NC(C2CC2c2ccccc2)CCO1 (centres undefined),inactive,–
C/C(CC(=O)Nc1ccccn1)=N\NC(=O)c1ccc2ccccc2c1,inactive,–
Cc1c(Cl)cccc1N1C(=O)CC(Sc2ccccc2N)C1=O (centres undefined),"inconclusive [inhibitor, partial curve]",–
Cc1ccc(S(=O)(=O)N(CC(=O)NCCSc2ccccn2)c2ccc(C)c(C)c2)cc1,"inconclusive [inhibitor, single point]",–
CCc1nc2ccc(C(=O)NCCc3c[nH]c4ccccc34)cn2c1N(C)Cc1ccc(N(C)C)cc1,"inconclusive [inhibitor, single point]",–
O=C(CNC(=O)c1ccc(F)cc1)N/N=C/c1cc(Br)ccc1OCc1ccccc1,"inconclusive [inhibitor, single point]",–
Cc1ccc(NC(=O)CSCC(=O)Nc2cc(C(F)(F)F)ccc2N2CCOCC2)cc1,active: 20.6 µM,–
O=C(CNCc1ccccc1)Nc1ccc(Oc2ccccc2)cc1,"inconclusive [inhibitor, single point]",–
O=C(COc1ccc(NC(=O)c2ccccc2)cc1)c1ccccc1,"inconclusive [inhibitor, single point]",–
COc1cccc2cc(C(C)OC(=O)Nc3ccc(C)cc3)oc12 (centres undefined),inactive,–
COc1ccc(-c2cc(-c3cc(C)ccc3O)[nH]n2)cc1,"inconclusive [inhibitor, single point]",–
COC(=O)c1ccccc1N1CCS(=O)(=O)CC1,"inconclusive [inhibitor, partial curve, poor fit]",–
O=C(CSc1nc2ccccc2o1)Nc1ccccc1N1CCCCCC1,"inconclusive [inhibitor, single point]",–
Cc1c(-c2ccccc2)n(O)c(-c2ccc(N(C)C)cc2)[n+]1[O-],"inconclusive [inhibitor, single point]",–
CC(C)C(=O)N1CCN(c2ccccc2NC(=O)c2ccc(Br)o2)CC1,"inconclusive [inhibitor, single point]",–
NS(=O)(=O)c1ccc(NC(=O)COC(=O)c2cn(-c3ccccc3)nc2-c2ccc(F)cc2)cc1,"inconclusive [inhibitor, single point]",–
O=[N+]([O-])c1cc([N+](=O)[O-])c(Oc2cccnc2Br)cc1NN1CCCCC1,"inconclusive [inhibitor, single point]",–
CCc1nn2c(=O)cc(COC(=O)c3cccc(NC(=O)c4ccccc4Cl)c3)nc2s1,"inconclusive [inhibitor, partial curve]",–

Compound,Potency,"activity change, negative = growth inhibition"
Cc1cc(C)n(-c2ccc(C(=O)OCC(=O)Nc3cc(Cl)ccc3[N+](=O)[O-])cc2)n1,–,inconclusive: -34.1% [inhibitor]
O=C(O)c1cc(N2CCCC2)ccn1,inactive,–
COc1ccc(C(=O)NCc2cccnc2)cc1OC,inactive,–
COc1ccc(N)c2c1C(=O)c1ccccc1C2=O,"inconclusive [inhibitor, partial curve]",–
CCCn1ccc2c(OCC(=O)NCc3ccc(C)cc3)cccc2c1=O,"inconclusive [inhibitor, single point]",–
O=C(CC1C(=O)NCCN1Cc1cccc(F)c1)NCCCOc1cccnc1 (centres undefined),"inconclusive [inhibitor, partial curve]",–
COC(=O)c1ccc(CN2CCCC(CO)(Cc3ccccc3F)C2)cc1 (centres undefined),inactive,–
COc1ccc(C)cc1S(=O)(=O)N(CC(=O)Nc1cccc([N+](=O)[O-])c1)c1ccc(C)c(C)c1,"inconclusive [inhibitor, single point]",–
Cc1ccc(CNC(=O)C2CCCN(S(=O)(=O)c3cccc4nsnc34)C2)cc1 (centres undefined),inactive,–
CCOC(=O)C1=C(CSc2nc(-c3ccncc3)ccc2C#N)OC(N)=C(C#N)C1c1ccc(OC)cc1 (centres undefined),active: 16.4 µM,–
C[C@@H]1CN([C@@H](C)CO)C(=O)CCCn2nncc2CO[C@H]1CN(C)Cc1ccccc1,inactive,–
NC(=O)c1ccc(N=C2C(=O)Nc3ccc([N+](=O)[O-])cc32)cc1,"inconclusive [inhibitor, single point]",–
COc1ccc(CNC(=O)c2cnc3sc(N4CCCC4)nn3c2=O)cc1OC,"inconclusive [inhibitor, single point]",–
CCOC(=O)C1CCCCN1C(=O)c1ccc(-n2cc(NC(=O)c3cccnc3)cn2)cc1 (centres undefined),"inconclusive [inhibitor, single point]",–
Cc1oc2c(CN(C)C)c(O)ccc2c(=O)c1-c1cscn1,inactive,–
O=C(CSc1c2c(nc3ccc(Cl)cc13)CCCC2)N1CCN(c2cccc(Cl)c2)CC1,"inconclusive [inhibitor, single point]",–
COc1cc(/C=N/N=C2/NC(=O)C(Cc3ccccc3)S2)ccc1O (centres undefined),"inconclusive [inhibitor, single point]",–
Cc1ccc2c(c1)C(c1ccc(F)cc1)N(C(=O)COc1ccc(Cl)cc1Cl)CC(=O)N2 (centres undefined),"inconclusive [inhibitor, single point]",–
CCN(CCCNC(=O)c1cc2c(=O)n(C)c3ccccc3c2s1)Cc1ccccc1,active: 20.6 µM,–
CCOc1ccc(N(CC(=O)NCc2ccco2)C(=O)CCC(=O)Nc2nccs2)cc1,inactive,–
COc1ccc(NS(=O)(=O)c2cccc(C(=O)N/N=C(/C)c3ccc(-n4ccnc4)cc3)c2)cc1,inactive,–
CC1CCc2sc3ncn4nc(C(=O)NCc5ccco5)nc4c3c2C1 (centres undefined),"inconclusive [inhibitor, partial curve]",–
O=C(Nc1ccc(S(=O)(=O)N2CCCCC2)cc1)c1ccccc1F,"inconclusive [inhibitor, single point]",–

Compound,Potency,"activity change, negative = growth inhibition"
CC1CCN(C(=O)c2cccc(S(=O)(=O)N3CCN(c4ccccc4)CC3)c2)CC1,"inconclusive [inhibitor, single point]",–
CCOC(=O)NN1C(=O)c2ccccc2NC12CCCC2,inactive,–
CSc1ccc(CN2C(=O)C(C)Oc3c(C(C)=O)cccc32)cc1 (centres undefined),"inconclusive [inhibitor, single point]",–
CC1CCN(C(=O)CN(Cc2ccc(Cl)cc2)S(C)(=O)=O)CC1,"inconclusive [inhibitor, partial curve, poor fit]",–
C=CCc1ccc(OCCCCN2CCC(C)CC2)c(OC)c1,active: 16.4 µM,–
Cc1cccc(NC(=O)c2ccc(C(=O)c3ccccc3)o2)c1,"inconclusive [inhibitor, single point]",–
O=C1CCCC(O)=C1N=Nc1cccc(C(=O)O)c1,inactive,–
COC(=O)[C@@]12C[C@@H](CC(=O)NCc3cccs3)C(=O)N(CCc3ccc(OC)c(OC)c3)C1=CCC(C)(C)C2,"inconclusive [inhibitor, single point]",–
CCCCN(CCCC)S(=O)(=O)c1ccc(C(=O)Nc2nnc(COC)o2)cc1,active: 16.4 µM,–
CCOC(=O)[C@@H]1[C@H]2COc3ccccc3[C@@H]2N2C(=O)N(c3cccc(Cl)c3)C(=O)[C@]12C,inactive,–
Cc1cc2ncn(CCCCOc3ccccc3)c2cc1C,active: 14.6 µM,–
CC1CC(C)CN(S(=O)(=O)c2ccc(C(=O)NCc3ccco3)cc2)C1 (centres undefined),"inconclusive [inhibitor, partial curve, poor fit]",–
Cc1nc(C(F)(F)F)ccc1C(=O)N1CCC1(C)C(=O)NS(=O)(=O)c1ccc(C#N)cc1 (centres undefined),inactive,–
COc1cccc(C(=O)Nn2c(-c3cccs3)nc3ccccc3c2=O)c1OC,"inconclusive [inhibitor, single point]",–
C=CCn1c(SCN2C(=O)c3ccccc3C2=O)nc2ccc(Cl)cc2c1=O,active: 18.4 µM,–
C/C(=N\Nc1ccc(C(=O)O)cc1)c1ccc2c(c1)Nc1ccccc1S2,"inconclusive [inhibitor, single point]",–
CC(=O)c1ccccc1NC(=O)c1ccc2c(c1)NC(=O)C(C)S2 (centres undefined),"inconclusive [inhibitor, single point]",–
COc1cccc(-c2c(C(=O)N/N=C(\C)c3cccs3)nnn2-c2nonc2N)c1,"inconclusive [inhibitor, single point]",–
COc1cccc(CSc2nnc(C(F)(F)F)n2Cc2ccc(F)cc2)c1,"inconclusive [inhibitor, single point]",–
COc1ccc(N=C2NC(=O)/C(=C/c3ccco3)S2)cc1,"inconclusive [inhibitor, single point]",–
COC(=O)C1CCC(=O)N1C(c1ccc(OC)cc1)c1cc(OC)c(OC)c(OC)c1 (centres undefined),active: 1.3 µM,–
CCCC(=O)Nc1ccc(N2CCCCC2)cc1,inactive,–
CC1CCC(NC(=O)c2ccc3c(c2)N(Cc2ccccc2)C(=O)c2ccccc2S3=O)CC1 (centres undefined),"inconclusive [inhibitor, single point]",–
